Each structure is given as a SMILES string. In all, about 48,000 compounds went through this assay and about 120 (0.25%) were called active. Roughly 4% stayed inconclusive and do not appear here. Calls follow the shape of the dose curve; as a rule, active = well fitted activation curve with a large enough effect; inconclusive = small, poorly fitted or top-dose-only effect, or another doubt; inactive = no such curve, though single readings can be large or run the other way. This is one part of the list.

This test in a line: Primary qHTS for Identification of Small Molecule Activators of Huntingtin-Antisense Promoter Activity. Also: nearly all actives have a fitted effect of over 55% in size. The settings on record: HEK293 HTT-AS promoter firefly luciferase reporter, 24 h; series mostly up to 57.5 µM; activity change, positive = activation: at the top concentration. The essentials:
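Firefly luciferase signal from promoter-reporter HEK293 cells was scaled between vehicle (0%) and zero RLU (-100%). Compounds were tested at final concentrations of up to 57.5 uM over 24 h at 37 degrees C. PTC124 at 50 uM final served as control inhibitor.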
Turning to `Cc1cccc(C)c1NC(=O)Cn1cc(C(=O)C2CC2)c2ccccc21`, the “activity change, positive = activation” value is inactive: -17.4%.

With `Cc1nn(CCC(=O)Nc2cccc(C#N)c2)c(C)c1S(=O)(=O)N1CCCCC1`, the “activity change, positive = activation” value is inactive: -35.8%.

As for `COc1cccc(C(=O)Nc2nnc(S(=O)(=O)N3CCCc4ccccc43)s2)c1`, the “activity change, positive = activation” value was inactive: -28.8%.

Regarding `CCCCN(CC)CCCNC(=O)c1cn(C)c(=O)c2c1c1ccccc1n2C`, the “activity change, positive = activation” value was inactive: -11.6%.

For `CCS(=O)(=O)NCCc1csc2nc(-c3ccc(OC)cc3)nn12`, the “activity change, positive = activation” value is inactive: -5.17%.

`COc1ccc(OC)c(S(=O)(=O)NCCS(=O)(=O)N2CCN(c3ccccc3F)CC2)c1`: the “activity change, positive = activation” value is inactive: -18.3%.

Regarding `CCc1cnc2c(c1SCc1cc(OC)cc(OC)c1)c(=O)n(C)c(=O)n2C`, the “activity change, positive = activation” value was inactive: -6.38%.

For the molecule `Cc1ccc(C)c(CN2C(=O)c3ccccc3S(=O)c3ccc(C(=O)N4CCCCC4)cc32)c1` (stereo not drawn), the “activity change, positive = activation” value is inactive: -6.76%.

For the molecule `CCCc1nnc(SCc2cc(=O)c3c(C)cc(C)cc3[nH]2)n1C`, the “activity change, positive = activation” value was inactive: -9.33%.

Take `CCc1nnc(NC(=O)CSc2nccn2Cc2ccc(Cl)cc2)s1`: the “activity change, positive = activation” value was inactive: -12.3%.

`O=C(Nc1ccc(F)cc1F)C1CCN(C(=O)c2cnn(-c3ccccc3)c2-n2cccc2)CC1`: the “activity change, positive = activation” value is inactive: -31.7%.

For the molecule `O=C(NCC(c1ccc2c(c1)OCO2)N1CCN(c2ccccc2)CC1)c1ccc(F)c(F)c1` (stereo not drawn), the “activity change, positive = activation” value was inactive: -32.9%.

Turning to `CCCN[C@H]1CCc2nc(N)sc2C1`, the activity change, positive = activation entry is “inactive”.

Regarding `C=CCC(CC=C)(CNC(=O)C(=O)Nc1ccc(Br)cc1)c1ccc(OC)c(OC)c1`, the “activity change, positive = activation” value was inactive: -15%.

On to `CC(C)(C)Cn1c(N)nc2ccc(-c3[nH]c(C(C)(C)C)nc3-c3ccc(F)cc3)nc21`, for which the “activity change, positive = activation” value was inactive: -31.3%.

Regarding `O=C(NCc1cccc(Cl)c1)c1cnc(N2CCOCC2)c2ccccc12`, the “activity change, positive = activation” value is inactive: -16.1%.

On to `CCc1ccc(CNC(=O)Cn2nc(C)c3nn(-c4ccc(Cl)cc4)c(C)c3c2=O)cc1`, for which the “activity change, positive = activation” value was inactive: -48%.

On to `CCOc1ccc(NS(=O)(=O)c2c(C)nc3sc(CC)nn3c2=O)cc1`, for which the “activity change, positive = activation” value was inactive: -28.6%.

Consider `COCCNC(=O)c1ccc2c(c1)ncn2-c1cc(C)ccc1OC`, for which the “activity change, positive = activation” value is inactive: -8.56%.

In the case of `Cn1cccc1-c1cc2n(n1)CCC(=O)N2CCCC(=O)NCc1cccc(Cl)c1`, the “activity change, positive = activation” value is inactive: 4.5%.

Turning to `CSc1ccc(CCNC(=O)c2ccc(-n3c(C)cc4c3CCC(C)C4)cc2)cc1` (stereo not drawn), the “activity change, positive = activation” value was inactive: 0.603%.

On to `COc1ccc2c(c1)c(CC(=O)Nc1c(C)cccc1C)c(C)n2C(=O)c1ccc(Cl)cc1`, for which the “activity change, positive = activation” value was inactive: -37.9%.

As to `COc1ccc(C(=O)CC2(O)C(=O)Nc3c(Cl)ccc(Cl)c32)cc1` (stereo not drawn), the “activity change, positive = activation” value was inactive: -40.5%.

Take `COc1ccc(OCC(=O)NCc2ccc3c(c2)CCN3C(=O)c2cccc(C)c2)cc1`: the “activity change, positive = activation” value was inactive: -29.6%.

Take `CC(=O)N1CCCC1c1nc2ccccc2n1Cc1cccc(C)c1` (stereo not drawn): the “activity change, positive = activation” value is inactive: -8.83%.

Consider `CCOc1ccccc1NC(=O)Cn1c(=O)n(-c2ccc(C)cc2)c(=O)c2c1cnn2C`, for which the “activity change, positive = activation” value is inactive: -14.3%.

Turning to `Cc1cc(C)cc(NC(=O)CCn2cnc3ccccc3c2=O)c1`, the “activity change, positive = activation” value is inactive: 5.15%.

Consider `CC(C)c1ccc(C2NC(=O)c3c(sc4c3CCN(C)C4)N2)cc1` (stereo not drawn), for which the “activity change, positive = activation” value was inactive: 5.5%.

Take `COc1ccc(NC(=O)c2ccc(NC(=O)CCS(=O)(=O)c3cccs3)cc2)cc1Cl`: the “activity change, positive = activation” value is inactive: -6.1%.

Consider `Cc1ccc(-n2nnnc2SCC(=O)NCCc2ccccc2)cc1C`, for which the “activity change, positive = activation” value is inactive: -7.32%.

As for `CCOc1ccc(N(CC(=O)OC)S(=O)(=O)c2ccc3c(c2)n(C)c(=O)c(=O)n3C)cc1`, the “activity change, positive = activation” value is inactive: -7.38%.

For the molecule `CCC(C)NC(=O)Cn1c(=O)n(-c2ccc(Cl)cc2)c(=O)c2c3c(sc21)CCCC3` (stereo not drawn), the “activity change, positive = activation” value is inactive: -4.61%.

On to `Cc1ccc(C)c(N2CCN(C(=O)c3c(C)oc4nc(C)nc(N5CCOCC5)c34)CC2)c1`, for which the “activity change, positive = activation” value was inactive: -20.7%.

As for `CCCCC(=O)OC1=CN(Cc2ccccc2)S(=O)(=O)c2ccccc21`, the “activity change, positive = activation” value is inactive: -3.37%.

As for `CC(CC(=O)Nc1ccc(F)cc1)S(=O)(=O)c1cc2c3c(c1)CCN3C(=O)CC2` (stereo not drawn), the “activity change, positive = activation” value is inactive: 6.12%.

Consider `Cc1cc(=O)oc2cc(O)ccc12`, for which the activity change, positive = activation entry is “inactive”.

For `COc1ccc(N2CCN(C(=O)C(CC(C)C)NS(=O)(=O)c3ccc4nc(C)sc4c3)CC2)cc1` (stereo not drawn), the “activity change, positive = activation” value is inactive: -22.9%.

As to `O=C(NC1CCCCC1)c1ccc2c(c1)N(Cc1cccc(Cl)c1)C(=O)c1ccccc1S2(=O)=O`, the “activity change, positive = activation” value was inactive: -7.14%.

For the molecule `Cc1ccc(CNc2cc(C)nc3nc(-c4ccc(C)cc4)nn23)cc1`, the “activity change, positive = activation” value is inactive: 27.6%.

In the case of `COC(=O)c1ccccc1NC(=O)CSc1nc2ccccc2nc1Cc1ccc(F)cc1`, the “activity change, positive = activation” value is inactive: 0.249%.

For `Cc1nnc(NC(=O)CSc2nccn2Cc2ccccc2)s1`, the “activity change, positive = activation” value is inactive: -17.2%.

For the molecule `Cc1ccc(C(=O)Nc2cc(-c3cn4cccnc4n3)ccc2C)cc1C`, the “activity change, positive = activation” value is inactive: 0.679%.

For `CSCCC(NS(=O)(=O)c1ccc2c(c1)oc(=O)n2C)C(=O)NCc1ccc(Cl)cc1` (stereo not drawn), the “activity change, positive = activation” value is inactive: -1.65%.

With `O=C(Nc1cc(-c2cccc(Cl)c2)nn1-c1ccccc1)c1ccccc1F`, the “activity change, positive = activation” value is inactive: 4%.

Turning to `CCc1ccccc1S(=O)(=O)Cc1ccc(C(=O)NCCc2ccc(Cl)cc2)o1`, the “activity change, positive = activation” value is inactive: -43%.

Turning to `CCS(=O)(=O)c1ncc(N(Cc2ccccc2)Cc2ccco2)c(C(=O)Nc2ccccc2C)n1`, the “activity change, positive = activation” value is inactive: -20.5%.

On to `CC(C)CCNc1nc(Nc2ccccc2)c2cnn(C)c2n1`, for which the “activity change, positive = activation” value was inactive: -5.33%.

For `NCC[C@H](O)C(=O)N[C@@H]1C[C@H](N)[C@@H](O[C@H]2O[C@H](CN)[C@@H](O)[C@H](O)[C@@H]2O)[C@H](O)[C@@H]1O[C@H]1O[C@H](CO)[C@@H](O)[C@H](N)[C@@H]1O`, the activity change, positive = activation was inactive: -2.89% [at 0.74 µM, percent change from vehicle, -100% = no light].

Source of the values: PubChem BioAssay AID1508624 (National Center for Advancing Translational Sciences (NCATS), 2021).
